Source: the supplement of paper PMC12632987
Whole data set: some 4,500 sequences, median “median log2 fold change of GCK-ALFA target abundance (FLAG IP / Myc IP barcode read proportion)” near 0.078, cut for the lowest 2% near -0.6. The list shows a part of the results.

B1: GBRAP_122_2948 (protein)
chain: AATEAELAALVEAIVAALEAGDEARLQALAARLVALFRTITPEQARAAVERLLAAVAGDEEAREAVLRALLAAFTASQPLTPAQEAAAEVVAEAFDELSE
B2: GBRAP_35_5551 (protein)
chain: SSDEEILKMMKATAEDLLKAVEDIPVDDLVAMATSIAKSTLEIIKQEKENKEEVKELADATLKALEAVIKKAKEEGYPEEKIEELEKLKEEIEKALKEAL
B3: GBRAP_39_5694 (protein)
chain: EEEEENEDVVSYLEALAAGELYKTGISLEEAYERAKKILEKYAEEHPELKELLERLIELADEKGEEAKLALIGIAVLIEEGTPEEEIKEKIERAIAYFEK
B4: GBRAP_45_5804 (protein)
chain: MSELDKHIKAALEELEKAKEIIEKNEEIPEEKKEKYITEIDEIIKELKANPYDAEKLDELEKRVEALLKEALADPNATAEEIEALLEAANHIAAARELLK
B5: GBRAP_184_5219 (protein)
chain: TTVRRSVEADTAEEAIAKANEVIAEAEAAGERLELHVFLSNMSIEEIETVMKHLAELKAEGRVESVTVHVEDERSEEEIDKLVEIADKYGIRLVIALPDE
B6: GBRAP_11_2801 (protein)
chain: KKEQLKKIAELAEELAKAIKKLLEAGVDDEELRAKIKELIKELKELVEKYGDEGLKKLAKIIAELFEKAQADPENAEEYFKQALAAARVLAGNVLLEIEE
B7: GBRAP_125_3126 (protein)
chain: ERAALLADLAELLRALGWDDEDVAEAVRLAAAHGLKGTLYAAMKAMGWDELADLVARLTEEQTAAVLREVVARLRAHPDLTPEEVRALLREVAEAAVAAA
B8: GBRAP_48_5825 (protein)
chain: ATPDPATLEKLVTETVEFMKEIYEEAKKEGLSREEILKMIKAELGDLALDLEEAGFTKAADYLRDRENRDETAEKLLELFDEGKWEEARDYLLEKLRAAE
B9: GBRAP_82_6868 (protein)
chain: KPVVVAEVISMEPLTPEQLAEAEKVAEALRKEAAAKGIELHVIVSDASDESMDKANKELKELKKKYPDAVVVTGAVSKAEDVPEMLRAVADEAIDLALER
B10: GBRAP_160_4808 (protein)
chain: MEKAEKKLEEFRKSLLETARATADLPIEDRARILEAEGYTEILDLEEELNLSDETVEKLDAVVDELVATLLANPDLSPEEVLALVEAANKRIEEIVKEEV
B11: GBRAP_125_3065 (protein)
chain: AKEAAIADLERIARALGLSEDDIAELRELARAGSIKNTLIAIALAEGREELAEAVEKLTEEEAVEVLRRLAARLAAHPDLTPEEVLEELLRLAREALEKR
B12: GBRAP_39_5675 (protein)
chain: EEEEENENVVSYLEALAAKYLYDTGLSEEELYKRAKEILEKKAKENPELKELLEELIKIAEEKGEEAKLALIGVAVLIEEGTPLEEIKEKIEKIIAYFKS
B13: GBRAP_11_2771 (protein)
chain: KKEELLKAAELAEELAKLYKKLIEEGPDNEELLKEAEEKLKELEELTKKYGSEAQKKAVEEIKELFKKMKEDPENAVEYLEEARNEALVLAGQFLLDAEE
B14: GBRAP_11_2706 (protein)
chain: KKEKLKEAAKLAEEAAKLVKKLLKEGVDNEELLKELEEKIKKLKELTEKHGDEASKKLAEIAEELWEEALKDKENAEQYLKELLAALRVLEGNYLLEIEE
B15: GBRAP_52_5932 (protein)
chain: MEEEIEEDVERLVELVEAGKLEEARKLAKEIVETYSEEELEKFIERLAELARTAPLERLPYILEAAEILAEEMERAGRDEALADDLLARVAAAAYENELA
B16: GBRAP_95_7059 (protein)
chain: DDLVEEAEALFDTAADLAEAGFEEQAAKAVKALADALKELGGNKVDAKVDRETALRLARIAAETLDADDARAVVDLLGAAVGDPETAAELRAILEAAEAA
B17: GBRAP_166_4991 (protein)
chain: SDEELLEETKKYIDEAFERAKTLSPEERDEEIAEANLKVNDAIEELKDLEKAKELAVYYVEKLVELLGSAEAARRRIVWPLDVPDEVIDAAEERLRELAE
B18: GBRAP_160_4113 (protein)
chain: KEKLVEAAEENAEDVKETIKIIEDLSPEEAGNLAIVTLGQVLLDASEFGEEFEEIEKLAEEAIEEIKKTAEEDPEKLKEVSKEQLEKLRKALEEKAKELK
B19: GBRAP_9_7108 (protein)
chain: KEEFAKKVKEIIKDAAEEIKKVVPEELKPLVDELTEKILKEIEKLAKDKNTTKEEIAEAAKKGLKELAKELSKKLSPEIAAAVEAIVLTAIEEIDELAEE

What follows are binders tested against GABARAP, O95166 (assay: median log2 fold change of GCK-ALFA target abundance (FLAG IP / Myc IP barcode read proportion) (log2 ratio); each designed protein is fused to an ALFA-tag nanobody in HEK293 cells to bring the named protein to FLAG-tagged glucokinase (GCK); Myc marks an untargeted standard; higher = target protein stabilised (more abundant)). Conditions: target protein: 3xFLAG-MCP-GCK-ALFA reporter; HEK293 landing pad (RPLP).
Procedure, shortened: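 HEK293 landing-pad cells received a recombined binder library fused to the ALFA nanobody and were induced with 2 μg mL^−1 doxycycline, then transfected with a plasmid encoding a FLAG-tagged target and a Myc-tagged standard. Lysates were collected after 48 h for anti-FLAG and anti-Myc immunoprecipitation, and the circular RNA barcodes were reverse transcribed, amplified and sequenced. Target abundance for each binder is the median log2 ratio of FLAG to Myc barcode read proportions. Barcodes had to reach a proportion of at least 10^−7 in both replicates, each binder needed at least 3 barcodes per replicate, a pseudocount of 10^−6 was applied, and the two replicates were pooled.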

Sequence of GABARAP, O95166 (O95166 whole entry, the tested form may be a part): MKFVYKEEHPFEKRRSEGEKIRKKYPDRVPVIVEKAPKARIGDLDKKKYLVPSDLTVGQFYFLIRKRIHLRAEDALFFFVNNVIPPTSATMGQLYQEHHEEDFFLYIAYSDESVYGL

Row | Binder | median log2 fold change
1 | B1 | 0.0946
2 | B2 | 0.378
3 | B3 | 0.14
4 | B4 | 0.361
5 | B5 | 0.0642
6 | B6 | 0.201
7 | B7 | -0.0606
8 | B8 | -0.257
9 | B9 | 0.141
10 | B10 | -0.0291
11 | B11 | 0.0921
12 | B12 | 0.415
13 | B13 | 0.243
14 | B14 | 0.337
15 | B15 | -0.463
16 | B16 | 0.0328
17 | B17 | 0.129
18 | B18 | 0.161
19 | B19 | 0.464
